The subject of the series is ATP. In words: switch fluorescence ratio, 500 uM ATP over buffer (Cy3 cluster intensity, sum of 5 cycles each) (fold (ratio)); higher = stronger signal-on switching upon ATP binding; sequences stand for … in TCGTCGGCAGCGTCAGATGTGTATAAGAGACAGTTTTTTTTTTTTTTTTTTTTTTTTT…TC. As to conditions: aptamer strand: ATP DNA aptamer (quencher-CACCTGGGGGAGTATTGCGGAGGAAGG + anchor), 100 nM annealed; ATP concentration: 500 uM; one replicate. A digest of the protocol: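 Five buffer/ATP imaging cycles were run on Cy3-labelled switching-strand clusters on a modified Illumina MiSeq flow-cell, with NaOH stripping and re-annealing between cycles. In each cycle, clusters annealed to 100 nM quencher-labelled ATP aptamer were imaged in selection buffer, then after 15 min with 500 uM ATP at 22 °C. Per cluster, the fluorescence ratio is summed target-cycle over summed buffer-cycle Cy3 intensity, averaged per switch-domain sequence. Only clusters within 100-1000 RFU were kept.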

Sequences with one replicate were seen in a single cluster, so their values are uncertain.

Here are results for 79 sequences from the supplement of paper PMC10126150.
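Further: ATP exposure 15 min at 22 °C before imaging.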

Consider GATGTGAAAA, for which the switch fluorescence ratio was found to be 1.02.

TTCGTTGAGC: the switch fluorescence ratio came to 0.995.

Consider CAGGACCGTT, for which the switch fluorescence ratio was determined as 1.

On to AAAACTCCAT, for which the switch fluorescence ratio came out at 1.01.

With GATAGGTGTG, the switch fluorescence ratio was determined as 1.06.

With TTAACTTTGA, the switch fluorescence ratio worked out at 0.999.

TCGGCGGAGT: the switch fluorescence ratio came to 1.

TTTGTATAAG: the switch fluorescence ratio came out at 0.989.

Regarding CGAGTATCGG, the switch fluorescence ratio was found to be 0.975.

Consider CGGTTAGTGC, for which the switch fluorescence ratio was determined as 1.02.

Regarding TATCGGGTTA, the switch fluorescence ratio was 0.956.

Consider TAGATTACTA, for which the switch fluorescence ratio amounted to 0.99.

TGACAGGAGA: the switch fluorescence ratio was 1.06.

Consider GACGTTTCGA, for which the switch fluorescence ratio worked out at 0.993.

Take AGAGATTAAT: the switch fluorescence ratio was 0.951.

For TTGGTGGGG, the switch fluorescence ratio came to 0.991.

With GGTCGCTAGG, the switch fluorescence ratio is 0.966.

TCTATTTCT: the switch fluorescence ratio was 1.03.

On to AGGAACAAGC, for which the switch fluorescence ratio came out at 1.

On to GCACCATTTT, for which the switch fluorescence ratio worked out at 1.02.

On to GGGTAGAAGG, for which the switch fluorescence ratio was 1.01.

In the case of TTGAATATGC, the switch fluorescence ratio stood at 1.1.

Take GAGGATTATG: the switch fluorescence ratio is 1.04.

Turning to ATAATTATAG, the switch fluorescence ratio turned out to be 0.978.

On to ATGTTCGCAC, for which the switch fluorescence ratio is 1.14.

With ATCCCTTGTT, the switch fluorescence ratio worked out at 1.

Consider TTGCAGTCAA, for which the switch fluorescence ratio is 4.04.

For the sequence TTCTCAAACG, the switch fluorescence ratio is 1.

ACTGCCGGGC: the switch fluorescence ratio amounted to 0.996.

For the sequence GATTAGCAGG, the switch fluorescence ratio was 1.03.

Turning to CCACTGAAG, the switch fluorescence ratio is 1.

Take AAAGGGCGAG: the switch fluorescence ratio was 0.991.

For TGTGTCGACG, the switch fluorescence ratio was determined as 1.02.

In the case of AATGTACGGA, the switch fluorescence ratio was 1.11.

As to TAGATACTCT, the switch fluorescence ratio came out at 1.09.

Take CATACTTTAA: the switch fluorescence ratio amounted to 1.08.

As for ATCTGGAGGT, the switch fluorescence ratio is 1.01.

Take TTCACGAAAC: the switch fluorescence ratio stood at 1.05.

For GTATTTGCAA, the switch fluorescence ratio is 1.06.

In the case of AGAATCGGAC, the switch fluorescence ratio was found to be 1.1.

In the case of CAAAGCGCAG, the switch fluorescence ratio came out at 1.02.

As for GTACGTGG, the switch fluorescence ratio came out at 1.03.

Turning to CGAACCCGTG, the switch fluorescence ratio came out at 1.13.

With GCGGTCTGCG, the switch fluorescence ratio was determined as 1.01.

In the case of ATAGTGAGGC, the switch fluorescence ratio turned out to be 1.04.

With ACCATCGCCA, the switch fluorescence ratio was found to be 1.07.

As for GTTGACGGAC, the switch fluorescence ratio is 1.03.

For CCTGTTTTT, the switch fluorescence ratio worked out at 0.996.

Turning to TCGTTGTGGA, the switch fluorescence ratio is 1.07.

With TGATCAACGT, the switch fluorescence ratio turned out to be 0.992.

Consider CGCGTCTTCT, for which the switch fluorescence ratio was 1.01.

In the case of ATTGACGTAG, the switch fluorescence ratio turned out to be 0.943.

Turning to GGATGCAGTG, the switch fluorescence ratio came out at 1.08.

CCAGAGAGTG: the switch fluorescence ratio worked out at 1.01.

TAAGCGCGG: the switch fluorescence ratio stood at 0.98.

For CATCTGTCAG, the switch fluorescence ratio was found to be 1.15.

Turning to ACTGGATGTG, the switch fluorescence ratio was determined as 0.98.

For CGCGTGGGG, the switch fluorescence ratio worked out at 1.09.

Turning to TAGATCAGTG, the switch fluorescence ratio came out at 1.01.

Take GTCGTAAGAC: the switch fluorescence ratio was 1.03.

As for CCATGGAACC, the switch fluorescence ratio was determined as 1.

Consider GTACGGAAAA, for which the switch fluorescence ratio is 1.01.

Regarding ACGTTGGTCG, the switch fluorescence ratio came to 1.

Take GCTGCAGGGA: the switch fluorescence ratio came to 1.01.

Regarding GATAAATAGG, the switch fluorescence ratio worked out at 1.01.

Regarding TGTTGCTATT, the switch fluorescence ratio amounted to 0.993.

As to CAAAATGAGT, the switch fluorescence ratio was 1.02.

With GCGCTACATT, the switch fluorescence ratio amounted to 1.05.

Turning to ATGGCGGTTC, the switch fluorescence ratio stood at 1.3.

Consider GCCCCGGACA, for which the switch fluorescence ratio is 1.05.

With GGGCTCGGGG, the switch fluorescence ratio is 1.01.

Turning to TAAATTCGTC, the switch fluorescence ratio turned out to be 0.97.

Turning to GTGATTAGTC, the switch fluorescence ratio came out at 1.

On to GAGATACTAA, for which the switch fluorescence ratio was 0.997.

Consider TTCTTTGGG, for which the switch fluorescence ratio is 0.974.

Take TTACAAAGT: the switch fluorescence ratio is 0.976.

Regarding CCCAGCATCG, the switch fluorescence ratio is 1.12.

In the case of CCAGTTTGTC, the switch fluorescence ratio worked out at 0.947.

As to GATCGCTAGT, the switch fluorescence ratio came out at 1.01.
